Measured values: PubChem BioAssay AID463173 (ICCB-Longwood Screening Facility, Harvard Medical School, 2010)
The whole screen tested about 52,000 compounds, of which about 4,300 (8.3%) were called active. No stated cut-off is given here; in the data, active means survival mostly below about 52% (no sharp cut-off); inactive means mostly above about 56%. The list shows a part of the results.

Test system: DeltatarO mutant
Assay: S. aureus survival, RN4220 and DeltatarO strains – OD600, teichoic acid synthesis inhibitors, primary screen (AID 463173)
Settings: S. aureus RN4220 wild type/DeltatarO growth, OD600, 18 h, hits give low values, screened at 18.75 µg/mL (by protocol)

| Compound | survival |
| --- | --- |
| Cc1ccc2sc(N(CCCN(C)C)C(=O)c3ccco3)nc2c1C | inactive: 128% |
| COc1cc(C(=O)NN)ccc1-c1ccc(C(=O)NN)cc1 | inactive: 77% |
| Cc1ccc2c(c1)cc(CN(Cc1ccco1)C(=O)NCc1ccccc1)c1nnnn12 | inactive: 97% |
| CCc1ccc(CNC(=O)CN2C(=O)CSc3ccc(S(=O)(=O)N4CCOCC4)cc32)cc1 | inactive: 87% |
| O=C(CSc1nc2c([nH]c3ccccc32)c(=O)n1-c1ccc(Cl)cc1)NCc1ccccc1 | inactive: 67% |
| COc1ccc(NC(=O)Cn2nnnc2-c2ccccc2F)c(C)c1 | inactive: 74% |
| CCCNC(=O)C1CCC(Cn2c(=O)c3sccc3n(CC(=O)N(CC)CC)c2=O)CC1 (stereo unspecified) | inactive: 94% |
| COc1cccc(/C=N/NC(=O)c2ccccc2O)c1 | inactive: 92% |
| COC(=O)c1ccc(NC(=O)CC2C(=O)N(c3cccc(F)c3)C(=O)N2CC(C)C)cc1 (stereo unspecified) | inactive: 74% |
| CCCN(CCC)CCNC(=O)CS(=O)Cc1nc(-c2ccc(OC)c(OC)c2)oc1C (stereo unspecified) | inactive: 100% |
| Cc1ccc(-n2nc(C(=O)N3CCCCC3)c(=O)n(C)c2=O)cc1 | active: 52% |
| CCOc1ccc(C2c3[nH]c4ccccc4c3CCN2C(=O)CSc2ccccc2)cc1 (stereo unspecified) | inactive: 129% |
| CN(C(=O)C1CC1)c1nnc(-c2ccc(F)cc2)s1 | inactive: 95% |
| CCOC(=O)c1cc(NC(=O)c2ccc(C)cc2)c(=O)n2c1oc1ccccc12 | inactive: 52% |
| CCOc1cc(CNCCSc2nnnn2C)ccc1OCc1ccc(Cl)cc1Cl | active: -6% |
| Cc1ccc(NC(=O)CN2C(=O)COc3ccc(S(=O)(=O)N4CCCCC4)cc32)cc1Cl | inactive: 82% |
| COCCCNC(=O)Cn1c(=O)n(-c2ccccc2)c(=O)c2c1c1cc(OC)ccc1n2C | inactive: 61% |
| COc1ccc(CN2C(=O)N(c3cccc(C)c3)C(=O)C2CC(=O)Nc2ccc(F)cc2)cc1OC (stereo unspecified) | inactive: 67% |
| CC(=O)Nc1ccc(S(=O)(=O)N2CCC(C)CC2)cc1 | inactive: 96% |
| CN(Cc1ccccc1)C(=O)C(=O)Nc1ccc2nc3n(c(=O)c2c1)CCCCC3 | inactive: 82% |
| COc1cccc(C(=O)Nc2nc3c(s2)CCCC3)c1 | inactive: 87% |
| COc1ccc(-n2c(=O)c3ccc(C(=O)NCc4ccc(C)cc4)cc3n(CC(=O)Nc3cccc(F)c3)c2=O)cc1 | inactive: 79% |
| Cc1ccc(CNC(=O)c2cc3cc(C)ccc3n2C)cc1 | inactive: 62% |

| Compound | survival |
| --- | --- |
| CNc1ccc(-c2nc(-c3ccccn3)no2)cc1[N+](=O)[O-] | inactive: 52% |
| Cc1cc(NC(=O)c2ccc(-c3ccc(Br)cc3)o2)cc(-c2nc3ncccc3o2)c1O | inactive: 73% |
| Cc1ccc2nc(Cl)c3cc(C(=O)NCCCN4CCC(C)CC4)sc3c2c1 | inactive: 125% |
| O=C(Nc1ccccc1)c1ccco1 | inactive: 77% |
| Cc1ccc(C)c(S(=O)(=O)c2nnn3c2nc(NCc2cccs2)c2sccc23)c1 | inactive: 46% |
| COc1ccc(NC(=O)Cc2csc(COc3cccc(C)c3)n2)cc1OC | inactive: 72% |
| COc1ccc(N2CC(NC(=O)c3ccc4c(c3)OCO4)CC2=O)cc1OC (stereo unspecified) | inactive: 71% |
| CCc1ccc(-n2c(SCC(=O)NC(C)CC)nc3n[nH]c(C)c3c2=N)cc1 (stereo unspecified) | inactive: 122% |
| COc1ccc2c(c1)c1c(c(=O)n(-c3ccccc3)c(=O)n1CC(=O)Nc1ccc(F)cc1)n2C | inactive: 84% |
| Fc1cccc(Cl)c1CNc1n[nH]c(-c2ccco2)n1 | inactive: 76% |
| Cc1ccc(Cl)cc1N1CCN(C(=O)c2cccn2-c2nnc(N3CCCCC3)s2)CC1 | inactive: 69% |
| Cc1csc(NC(=O)/C=C\C(=O)O)n1 | inactive: 100% |
| CC1C(=O)Nc2ccc(S(=O)(=O)Nc3ccccc3Br)cc2NC1=O (stereo unspecified) | inactive: 90% |
| CC(C)CCNC(=O)c1ccc(Cn2c(SCC(=O)NC(C)C)nc3ccccc3c2=O)cc1 | inactive: 144% |
| CCn1c(=O)c2c(n3c(=S)[nH]nc13)-c1ccccc1CC21CCCCC1 | inactive: 59% |
| CCCSC1=NC2(CCN(C(=O)NC3CCCCC3)CC2)N=C1c1ccccc1 | inactive: 85% |
| NC(=S)NN1N=C(c2ccccc2)CC1=O | inactive: 89% |
| CC(C)c1nnc(NC(=O)c2nc(SCc3ccc(F)cc3)ncc2Cl)s1 | active: 24% |
| CCCSc1ncc(Cl)c(C(=O)Nc2sc3c(c2C(=O)NCC)CCCC3)n1 | active: 45% |
| COc1ccc(CNC(=O)Cn2nnc(-c3ccccc3F)n2)cc1 | inactive: 67% |
| Cc1ccc(-c2nc(S(=O)(=O)c3ccc(Cl)cc3)c(N3CCCCC3)o2)cc1 | active: 11% |
| CCCCN(C)CC(O)Cn1cc(/C=C/C(=O)c2ccc(OC)c(OC)c2)c2ccccc21 (stereo unspecified) | inactive: 67% |
| CCCn1ccc2c(OCC(=O)NCc3ccc(F)cc3)cccc2c1=O | inactive: 55% |

| Compound | survival |
| --- | --- |
| CCc1cc2c(cc3c(=O)n(CC(=O)N4CCCCC4)nc(CC)n32)s1 | inactive: 77% |
| COc1ccc(Cl)cc1C(=O)Nc1ccc2oc(-c3ccc(C(C)(C)C)cc3)nc2c1 | inactive: 82% |
| C#CCOc1nc(OCC#C)nc(N(c2ccccc2)c2ccccc2)n1 | inactive: 48% |
| CCN1CCN(C(=O)c2ccc3c(c2)N(Cc2ccccc2)C(=O)c2ccccc2S3=O)CC1 (stereo unspecified) | inactive: 104% |
| CN1C(=O)SC(Nc2ccccc2)C1=O (stereo unspecified) | inactive: 65% |
| CN(C)c1ccc(-c2nnc(-c3ccc(S(=O)(=O)C(F)F)cc3)o2)cc1 | inactive: 61% |
| CCOc1ccc(CNCc2c(C(=O)O)c(C)n(Cc3ccc(F)cc3Cl)c2C)cc1 | inactive: 118% |
| COc1ccc(OC)c(-c2nc(C(N)=O)c3c(n2)n(-c2ccc4c(c2)OCO4)c(=O)n3C)c1 | inactive: 84% |
| Cc1nn(CCCC(=O)NCc2cccc(F)c2)c(=O)c2nn(-c3ccccc3)c(C)c12 | inactive: 83% |
| CCOC(=O)c1c(S(=O)(=O)NCC(=O)Nc2ccc(Cl)c(C(F)(F)F)c2)c(C)n(C)c1C | inactive: 62% |
| CCCCc1nn2c(=O)cc(COC(=O)c3cccc(NC(=O)c4cccc(C)c4)c3)nc2s1 | inactive: 89% |
| Cc1ccc2[nH]c(=O)c(CN(Cc3cccnc3)S(=O)(=O)c3ccccc3)cc2c1 | inactive: 97% |
| CC(C)(C)Sc1ccc(SC#N)s1 | active: 1% |
| COc1cccc(NC(=O)CN(Cc2ccccc2)S(=O)(=O)c2ccc3nc(C)sc3c2)c1 | inactive: 112% |
| CSc1ncc(Cl)c(C(=O)Nc2nc3ccc(F)cc3s2)n1 | inactive: 98% |
| CCCCNC(=O)CN1C(=O)CSc2ccc(S(=O)(=O)N3CCC(C)CC3)cc21 | inactive: 82% |
| Cc1ccc(NC(=O)CN(C)S(=O)(=O)c2ccc3c(c2)CCC(=O)N3)c(C)c1 | inactive: 85% |
| Cc1ccc(CN2CCCn3nc(C(=O)NCc4ccccc4Cl)cc3C2=O)cc1 | inactive: 69% |
| COc1ccccc1-c1noc(-c2ccc(N(C)Cc3ccccc3)c([N+](=O)[O-])c2)n1 | active: 36% |
| Cc1ccc(NC(=O)Cn2nc(-c3ccc(F)cc3)c3cnc4ccc(C)cc4c32)cc1 | inactive: 124% |
| COc1ccccc1C(=O)c1c(N)c(-c2nc(-c3ccccc3)cs2)c2ccccn12 | inactive: 110% |
| CCCCN(CC)C(=O)CCn1c(=O)c2cccn2c2cccnc21 | inactive: 70% |
| CC(=O)Nc1ccc(C)cc1-c1nc2ccccc2n(CC(=O)c2ccc(Cl)cc2)c1=O | inactive: 82% |

| Compound | survival |
| --- | --- |
| COC(=O)c1cc2oc3ccccc3c2n1CC(=O)Nc1cc(OC)cc(OC)c1 | inactive: 61% |
| CC(C)(C)c1nn(-c2ccccc2)c2[nH]c(=O)c(CNc3ccc4c(c3)OCO4)cc12 | inactive: 86% |
| CC(=O)N(Cc1cccnc1)c1nc2ccc(F)cc2s1 | inactive: 81% |
| COc1cccc2cc(-c3cn4c(n3)sc3cc(F)ccc34)c(=O)oc12 | inactive: 60% |
| CCOc1ccc(N2CC(C#N)=C3c4cc(OC)c(OC)cc4CCN3C2)cc1 | inactive: 101% |
| Cc1ccc(-n2nnnc2CNC(=O)c2ccc(F)cc2)cc1C | inactive: 106% |
| COc1ccccc1-c1nn2c(=O)cc(CN3CCN(S(=O)(=O)c4ccc(C)cc4)CC3)nc2s1 | inactive: 95% |
| CCOC(=O)c1ccc(NC(=O)C2Cc3ccccc3C(=O)O2)cc1 (stereo unspecified) | inactive: 54% |
| Clc1cccc(N2CCN(c3ncnc4c3nc3n4CCCC3)CC2)c1 | inactive: 114% |
| Brc1ccc(CNCCCSc2nnnn2-c2ccccc2)cc1 | inactive: 69% |
| Cc1cccc(-c2noc(CNC(=O)c3ccco3)n2)c1 | inactive: 83% |
| COc1ccc(CCNC(=O)c2c(C)oc3nc(C)nc(N4CCOCC4)c23)cc1OC | inactive: 102% |
| Cc1ccc(NC(=O)C2CCCN(S(=O)(=O)c3cccc4cccnc34)C2)c(Br)c1 (stereo unspecified) | inactive: 75% |
| N#Cc1c2c(c(Nc3ccc(O)cc3)n3c1nc1ccccc13)CCC2 | inactive: 97% |
| Cc1onc(-c2ccccc2Cl)c1C(=O)Oc1ccc(Br)cc1 | active: 41% |
| Cn1cc(S(=O)(=O)N2CCCCCC2)cc1C(=O)NCc1ccc(Cl)cc1 | inactive: 94% |
| CC1=C(C(=O)Nc2ccccc2)C(c2cccc(O)c2)n2nc(-c3ccccc3Cl)nc2N1 (stereo unspecified) | inactive: 74% |
| CCN1CCOC(=O)C1CC(=O)Nc1cccc(OC)c1 (stereo unspecified) | inactive: 57% |
| C#CCNc1nc(CC(C)C)nc2c1nnn2Cc1ccccc1 | inactive: 88% |
| CCOc1ccccc1C(=O)N1CCN(CCc2ccccn2)CC1 | active: 67% |
| Cc1ccc(C2=Nc3ccccc3N(CC(=O)Nc3ccccc3C)C(=O)C2)cc1C | inactive: 87% |
| Cc1c(Cl)cccc1NC(=O)Cn1nc(C(F)(F)F)c2c1CCC2 | inactive: 73% |
